Results reported in PubChem BioAssay AID1963839 (Molecular Pharmacology Branch, DTP, NCI, 2024).
Some entries of the source have several records that differ or are many. This is not the full list of results. The source may hold further records. The values listed for one entry repeat one measurement (runs, samples, wells, individuals or studies). Signs of the kind (2×) say how often a value occurs here. Marks such as [2022-09] give the month of the run.

System: 817829-284-R-J1-PDC complex spheroid viability
Test: Anticancer human tumor 817829-284-R-J1-PDC patient-derived colon adenocarcinoma cell line growth inhibition [POLQ]
Conditions: for viability, T/C: stronger effect = lower value; for IC50: compound alone
Method: Multicellular complex tumor spheroid response to Polymerase (POL) inhibitors (novobiocin, ART-558, RP6685) in combination with a variety of drugs and investigational agents in selected tumor cell lines
The POL inhibitors (novobiocin, ART-558, and RP6685) were evaluated both individually and in combination with standard of care and investigational anticancer small molecules within a complex spheroid model of solid tumors. . Complex spheroids include a stromal component modeled by human endothelial cells (HUVEC) and fibroblasts modeled by human mesenchymal stem cells (MSCs). The concentration ranges selected for each drug and investigational agent were based upon clinically achievable concentrations if the clinical Cmax of the agent was known.
Compounds. The drugs and investigational agents: novobiocin (NSC847541), ART-558 (NSC835418), RP-6685 (NSC848927), peposertib (NSC802822), ceralasertib (NSC780249), elimusertib (NSC800525), camonsertib (NSC841442), AZD-1390 (NSC803789), olaparib (NSC753686), talazoparib (NSC767125), rucaparib (NSC756644), sotorasib (NSC818433), MRTX-1133 (NSC836407), SN-38 (NSC673596), topotecan (NSC609699), epotoside (NSC141540), doxorubicin (NSC123127), gemcitabine (NSC613327), 5-fluorouracil (NSC19893), paclitaxel (NSC125973), vemurafenib (NSC761431), MSA-2 (NSC828583), SN-011 (NSC837082), adavosertib (NSC754352), prexasertib (NSC758257), carboplatin (NSC241240) and oxaliplatin (NSC266046), were obtained from the National Cancer Institute (NCI) Developmental Therapeutics Program Chemical Repository (21). The FDA-approved anticancer drug set is available from the Developmental Therapeutics Program at https://dtp.cancer.gov/organization/dscb/obtaining/. […] The stock solutions were prepared in dimethyl sulfoxide (DMSO, Sigma-Aldrich, St. Louis, MO, cat. D2650), except for the platinum compounds which were prepared in saline (Quality Biological, Gaithersburg, MD, cat. 114-055-101), at 800-fold the tested concentration and stored at -70 degrees C prior to their use. All drugs and investigational agents were tested over a range starting from a high concentration at or near the clinical Cmax and decreasing in half-log increments. If the clinical Cmax for an agent had not been determined, the highest concentration tested was 10 microM, except for SN-38, which was tested at a high concentration of 1 microM.
Cell Culture. All cells were maintained in an incubator at 37 degrees C and 5% CO2 with 95% humidity. The PDC lines were cultured according to standard operating procedures established by the NCI PDMR (https://pdmr.cancer.gov). Table 3 of the manuscript, lists the cell lines along with the number of the three cell types plated to form the mct-spheroids and media for tumor cell growth. After thawing, all PDC lines, except 997537-175-T-J1-PDC and 415267-285-R-J2-PDC, were cultured in Matrigel-coated flasks prepared with a working solution of 1X Ham's F-12 nutrient mix, without supplementation (Thermo Fisher Scientific, cat. 11765054), 100 U/mL penicillin-streptomycin (Thermo Fisher Scientific, cat. 15140122), and 2.5% Matrigel (Corning Inc., Corning, NY, cat. 354248) for the first three passages. The two PDC lines 997537-175-T-J1-PDC and 415267-285-R-J2-PDC were cultured on uncoated flasks. The 857933-349-R-J2-PDC line was cultured in 6C/Colon 1B media containing advanced DMEM/F-12 (Thermo Fisher Scientific, cat. 12634028), 10 mM HEPES (Thermo Fisher Scientific, cat. 15630080), 1X GlutaMAX supplement (Thermo Fisher Scientific, cat. 35050061), 0.1 mg/mL primocin (InvivoGen, San Diego, CA, cat. ant-pm-2), 10% defined fetal bovine serum, heat inactivated (HyClone Laboratories Inc., Logan, UT, cat. SH30070.03HI), 50% L-WRN conditioned media (ATCC, cat. CRL-3276), 1.25 mM N-Acetyl-L-cysteine (Sigma-Aldrich, cat. A9165), 10 mM nicotinamide (Sigma-Aldrich, cat. N0636), 1X B-27 supplement (Thermo Fisher Scientific, cat. 17504044), 1X N-2 supplement (Thermo Fisher Scientific, cat. […]
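Also: spheroids exposed to compounds for 7 days.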
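For viability, T/C in this document: 100% = DMSO vehicle-treated spheroids.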

Compound	viability, T/C (compound alone 0.0316 µM)	viability, T/C (compound alone 0.1 µM)	viability, T/C (compound alone 0.316 µM)	viability, T/C (compound alone 1 µM)	viability, T/C (compound alone 3.16 µM)	IC50	viability, T/C (compound alone 10 µM)
Cc1cccc(N(C)C(=O)C2C(O)CCN2c2nc(C)cc(C(F)(F)F)c2C#N)c1 (stereo not drawn)	92.5, 110, 77.6, 96.9, 87.6, 115, 118, 121% [2023-11] and 103, 91, 101, 112, 91.3% [2023-12]	80, 122, 116, 107, 82.3, 137, 111% (2×) [2023-11] and 106, 111, 113, 120, 92.2% [2023-12]	97.8, 108, 120, 76.3, 89.3, 122, 112, 105% [2023-11] and 106, 105 (2×), 84, 108% [2023-12]	95.2 (2×), 102, 90.1, 62.3, 95.6, 103, 122% [2023-11] and 114, 99.8, 103, 107, 101% [2023-12]	111, 103, 98.3, 92, 88.9, 100, 126, 80% [2023-11] and 102, 103, 98.6, 104, 92.4% [2023-12]	–	–
Nc1ccc(C#CCN(C(=O)Cc2ncc(C(F)(F)F)cc2C(F)(F)F)c2ccc(F)cc2)nn1	102, 92.3, 118, 101 (2×), 96.3, 110, 113, 87.9, 88.4, 93.5, 109, 96.8%	107, 104 (2×), 112, 93.3, 94.1, 109, 96.1, 120, 99.8, 101, 108, 96.7%	93.9, 91.8, 105 (2×), 92.3, 93.6, 98.3, 107, 94.2, 108, 119, 109, 99%	104 (2×), 97.5, 112, 87.7, 83.7, 103, 102, 107, 96.1, 100, 106, 89%	–	–	–
CC(C)n1c(=O)n(C)c2cnc3cc(F)c(-c4ccc(OCCCN5CCCCC5)nc4)cc3c21	5.85%, 71.3% [2023-11] and 81.2% [2023-12]	6.01%, 71.6% [2023-11] and 87.1% [2023-12]	6.12%, 71.9% [2023-11] and 91.1% [2023-12]	6.82%, 90.8% [2023-11] and 73.3% [2023-12]	6.55%, 76.8% [2023-11] and 88.2% [2023-12]	< 31.6 nM, 7.27 µM [2023-11] and > 10 µM [2023-12]	9.02%, 40% [2023-11] and 65.6% [2023-12]
COC1C(OC(N)=O)C(O)C(Oc2ccc3c(O)c(NC(=O)c4ccc(O)c(CC=C(C)C)c4)c(=O)oc3c2C)OC1(C)C (stereo not drawn)	82, 106, 81.6, 112, 118, 102, 94.2, 108, 88.9, 88.5, 116, 107, 86.5%	82.1, 83.3, 88, 115, 117 (2×), 102, 76.1, 97.8, 106, 103, 99.2, 79.6%	88.7, 99.7, 109, 114, 94.6, 120, 102, 132, 101, 81.5, 87.7, 83, 104%	93.2 (2×), 68.1, 86.8, 109 (2×), 96, 97.7, 114, 113, 78.1, 83.8, 95.9%	113, 77.7, 61.7, 78.6, 79.7, 101, 94.8, 104, 103, 112, 111, 95.8, 72.4%	–	113 (2×), 114, 134, 105 (2×), 95.6, 96.6, 115, 103, 87.7, 95, 95.5%
O=C(c1cc(Cc2n[nH]c(=O)c3ccccc23)ccc1F)N1CCN(C(=O)C2CC2)CC1	6.95%, 109% [2023-11] and 99% [2023-12]	5.24%, 99.7% [2023-11] and 89.7% [2023-12]	6.64%, 73.1% [2023-11] and 91.8% [2023-12]	5.74%, 77.2% [2023-11] and 83.6% [2023-12]	6.52%, 36.8% [2023-11] and 63.2% [2023-12]	< 31.6 nM, 2.27 µM [2023-11] and 5.26 µM [2023-12]	–
